According to article PMC12136788:
The other results are listed elsewhere or left out.

T1: UNK ZnF1-3 (human, UniProt Q9C0B0 31-174)
T1 sequence: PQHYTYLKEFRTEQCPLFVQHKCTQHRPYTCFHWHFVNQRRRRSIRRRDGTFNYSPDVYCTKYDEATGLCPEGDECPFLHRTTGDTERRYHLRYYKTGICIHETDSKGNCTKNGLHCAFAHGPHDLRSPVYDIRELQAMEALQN

B1: chr14:96998876:96998877:+_ENSG00000090060_ENST00000216277|hu_mus|FALSE|FALSE (ssRNA)
RNA: GGGAGUUCUACAGUCCGACGAUCGAUAAAGCUGGCAAGUUCUUGCUACUAGCAUAGCCCAGGAAACACCACCGAGGAAACCUAAUAUAUUGGAAUAGAUGUUGUGCCGUUUGGCCCACAGUUUGAUGGCUCUCAGAGUUAACCCAACAGAGGAUUGAGCAUCA
B2: chr7:140404665:140404666:+_ENSG00000090266_ENST00000247866|hu_mus|FALSE|FALSE (ssRNA)
RNA: GGGAGUUCUACAGUCCGACGAUCUGCUCCUACUCGUCCAGAGAGUUUACAGUGUCAGUCCUCGUCAUCAGGAGGGAUUCCCAGUUCUUCAUCUGUCCACUGUGAAGGAUCUGGAUAUGAAAAGUGACCCAGCACAGCAUCCGACAACAGAGGAUUGAGCAUCA
B3: chr5:64648305:64648306:+_ENSMUSG00000029174_ENSMUST00000119756|mus_hu|FALSE|FALSE (ssRNA)
RNA: GGGAGUUCUACAGUCCGACGAUCCUGCACAAUAUUGUGUCCGCUAAUGAGGUGGUUCUCAAUGUCGCUCUCCUCGAAGGAGCUGAAGAAGCCGCUGCUUCGGAGGCCCCCAUCCUGCAGCUCCUUCCUAAAGGCCAGCGAGCGCAACAGAGGAUUGAGCAUCA
B4: chr7:107556004:107556005:+_ENSG00000091140_ENST00000440410|hu_mus|FALSE|FALSE (ssRNA)
RNA: GGGAGUUCUACAGUCCGACGAUCUAUACGUUGAAAAUUUUUUGAUAUCUCCAUGUCAAUUCCAAUUCCACCCACAUGACCCAAAAAUUCAACUGCUGUCACAUCUGCACCAAGUCUUUGCCAAACUGAACCCAGUUCCACACCCAACAGAGGAUUGAGCAUCA
B5: chr3:135071361:135071362:-_ENSMUSG00000028165_ENSMUST00000029815|mus_mus|FALSE|FALSE (ssRNA)
RNA: GGGAGUUCUACAGUCCGACGAUCAAGGGGUUUUACUGCCUCAAAAUAUUGUUGAUGGCAAUUAUUUUUCAUAAUUCUUCUAAAAGCAGCAGAGUUCCACAAAAGGCCAAAAAAAUGGCAAAUGACUUCAAAUGAGCAAAACAACAACAGAGGAUUGAGCAUCA
B6: chr11:118268936:118268937:-_ENSMUSG00000025575_ENSMUST00000017620|mus_hu|FALSE|FALSE (ssRNA)
RNA: GGGAGUUCUACAGUCCGACGAUCCCGUGGGGCCCGGGGGUCCAGUGCCCGCACCACUAUGGGGCCCGGGACUGGGCUCCCUGUCCAGACCUCCAACCCAGGCACAGUUCCAAAAAGAACAAAACAAAACAAAAGUGCACUCCUCAACAGAGGAUUGAGCAUCA
B7: 98656908_98657028_562_3pUTR_ENSG00000147649_ENST00000336273|human|control|control (ssRNA)
RNA: GGGAGUUCUACAGUCCGACGAUCCGCGGCCGGCACGGCCGCCGCCUCCUCCCGCUUGCGGGGCGGGCUCCUCCGCUUUUUGCGGGCGCCGGCGCAAGCCGCGGCCCAGCCGUAGCCCAGCAGAAACAGCAGCAGCAGCCCGAGCAACAGAGGAUUGAGCAUCA
B8: chr16:94651144:94651145:+_ENSMUSG00000040785_ENSMUST00000117648|mus_hu|mus_mus_mus_hu_True|48_68 (ssRNA)
RNA: GGGAGUUCUACAGUCCGACGAUCAUUUUCUUGAAUCAAGUGGCGAAUAACAUAGUCCACUGCUUCAUGGACAAAAUUUCUGCUAGAAAAGCAUGUUGUAUAGUCUUCUGUGCUCAAAACUUUCCAAGAAAGCAAUUCUUUGAGCAACAGAGGAUUGAGCAUCA
B9: 7304751_7309597_396_CDS_ENSMUSG00000024764_ENSMUST00000025675|mouse|control|control (ssRNA)
RNA: GGGAGUUCUACAGUCCGACGAUCACAUUCAAUGGAGACAUUCAACCCAUUGCGGUCAUACUUCUUGAAGACUGGGAAUGCCUCCAGAGGGUCUCCAAGCCUGUUGGCAGCAUCCACUUUGGCACACACAGCAUCCAUGGCCGCCAACAGAGGAUUGAGCAUCA
B10: 41572908_41573028_6472_CDS_ENSG00000100393_ENST00000263253|human|control|control (ssRNA)
RNA: GGGAGUUCUACAGUCCGACGAUCGCAACCCUUGGUAUGCUGCACAACCCGCUUCAUCUUCUGGCAGGAUGGCAGUGAGCAAUUGGCAUUCCGACACUGGCAAGCAUGGACCAGAGACUGGAUGCAGCGCUGGAUACUCAGGCGCAACAGAGGAUUGAGCAUCA
B11: chr11:77336104:77336105:-_ENSG00000074201_ENST00000525064|hu_mus|hu_hu_hu_mus_False|68_78 (ssRNA)
RNA: GGGAGUUCUACAGUCCGACGAUCCUCACACAUUGCUGUGAACAUCGCCUCCAAUGCUGAUUUAUCACUAGGCACAAAUCGAAAUUCAGAAAUGGGUUCAACAUCAUCAUUGUCUUCCUCAUCUUCAUCAGAGAGAGGUUCUUUCAACAGAGGAUUGAGCAUCA
B12: 120819733_120819853_4936_CDS_ENSMUSG00000049878_ENSMUST00000056635|mouse|control|control (ssRNA)
RNA: GGGAGUUCUACAGUCCGACGAUCUGAACACCCUUUCUGACCGACAUCUUGUUCAGCUGGGCAAGUAGAAUCAGUGUUUGGGAGGGGCACACUGCUGUCUCCUGGGGCUCCAUUCUCUGUGUGCACCGAUUCACAGCUAGUACUCAACAGAGGAUUGAGCAUCA
B13: chr14:55515796:55515797:+_ENSMUSG00000022194_ENSMUST00000116476|mus_hu|FALSE|FALSE (ssRNA)
RNA: GGGAGUUCUACAGUCCGACGAUCAAAUAGGGACUCAUCUAAGGCCAAGGAAGUCCUCACUGACUCUUUGUCUGAGAACUCUAUAUACGCAAACCCUUUGGGAUGGCCACUAAAUUUGUCACACAGUAUGGUAACACGGUUGACCAACAGAGGAUUGAGCAUCA
B14: chr14:90870231:90870232:+_ENSG00000198668_ENST00000553542|hu_mus|FALSE|FALSE (ssRNA)
RNA: GGGAGUUCUACAGUCCGACGAUCGCGGAUCUCUUCUUCGCUAUCUGUGUCUUUCAUUUUUCUAGCCAUCAUAGUCAAGAACUCUGGGAAGUCAAUGGUGCCAUUGCCAUCAGCAUCCACUUCGUUGAUCAUAUCCUGCAGCUCCAACAGAGGAUUGAGCAUCA
B15: chr18:13746249:13746250:+_ENSG00000101654_ENST00000262173|hu_hu|FALSE|FALSE (ssRNA)
RNA: GGGAGUUCUACAGUCCGACGAUCAUUUUCAUUGUUCUUAAUCUUUUCUUCGUAGAAUUCCAGAAAUGUUUUUUUGUAGACUAGUUUCAUAUUGUACUUCUUUGCCAUUUCAUUUAGCAAUGGAAAAUAGACCAAGAAUUCAGGCAACAGAGGAUUGAGCAUCA
B16: 65460615_65465888_1110_CDS_ENSG00000153914_ENST00000334121|human|control|control (ssRNA)
RNA: GGGAGUUCUACAGUCCGACGAUCGGAUCUACUCCUGUGUUUUGAUUGUGAUCUUUUCCUUCUAGAAUGGGAUUUUGAGCUAGACCUGGAUUUUGAGCGAGUAUGGGAACGAGAUCGACCGCCUUUUCUUUCAUUGCUCUUUCCCAACAGAGGAUUGAGCAUCA
B17: chr3:169712149:169712150:+_ENSG00000008952_ENST00000337002|hu_hu|FALSE|FALSE (ssRNA)
RNA: GGGAGUUCUACAGUCCGACGAUCUUAAUUCAAACACUUAGAUGAGAAACAGCCUAAAGCAAAGACUGACAUACACUACCUAUUUCAACCACAAAGCAAGAUGCUCUCACUGUGACUGAAGAAAAAUCAUUUAAUAUUCAUUAUCAACAGAGGAUUGAGCAUCA
B18: chr17:56552419:56552420:-_ENSMUSG00000013236_ENSMUST00000086828|mus_mus|mus_mus_mus_hu_False|58_108 (ssRNA)
RNA: GGGAGUUCUACAGUCCGACGAUCAAAGUUUUUUUCUUUUAAAAAAAAUGAAAUGUCACGGGAUACAGUUACACUGACACUAUUAAAAGAAAGCUGGAUUCUGGUCCCAGCCCAGUGUCCCCAGGCUGCAGAGCGGGGAGGAGCCAACAGAGGAUUGAGCAUCA
B19: chr2:202488911:202488912:-_ENSG00000155755_ENST00000286196|hu_mus|hu_hu_hu_mus_False|28_48 (ssRNA)
RNA: GGGAGUUCUACAGUCCGACGAUCAUUGAAACAUUUUUCAUAAUCUCCAGUAGCAUUUCAGCAUUAUGUAACAAAAGCUCAAUUGUAAAUACACAUGUCUUAUAAAAAUAAAAAUACAAACACGAGUGGGGAGCGCAGGCGCCACAACAGAGGAUUGAGCAUCA
B20: chr17:65740002:65740003:+_ENSG00000130935_ENST00000581375|hu_hu|hu_hu_hu_mus_False|68_78 (ssRNA)
RNA: GGGAGUUCUACAGUCCGACGAUCAACAAAUCUUUCUUCCCUGGACGAACAGGAAGACAUAAAAGAGCUUUAUAAAAUAUCCAUCAAGUUAGGUGUGGUGGCCACACCUUUACUCCCAGCACUUUGGGAGGUGGAUCUCUGAGUCAACAGAGGAUUGAGCAUCA
B21: chr8:38067834:38067835:+_ENSG00000156735_ENST00000287322|hu_hu|motif|central (ssRNA)
RNA: GGGAGUUCUACAGUCCGACGAUCCUUGGUUAGCAUUUCUUCCAGAAGCCAGUAUGCUUUGUCUGUCUUUUUUCCGGCAAAUUCUUCGGCUUCUUGUUCAAGAUACUGGACCUUCUCCAGCACAUGUAUGAUUUUUUUAAUACUCAACAGAGGAUUGAGCAUCA
B22: 99532797_99534492_1209_3pUTR_ENSMUSG00000041685_ENSMUST00000040340|mouse|control|control (ssRNA)
RNA: GGGAGUUCUACAGUCCGACGAUCCAUCAGGACAUUCCACAGAUUCUGCGUCCUUUUCCUUUUUAAUUAUUCCAGGCAAAGCAAAAGUCUUUCUUUUCCUUGGUUUUAUGCCUUCAACUGCACUAGCAGGGUCACACUCUUCAACAACAGAGGAUUGAGCAUCA

Each binder was assayed against T1, UNK ZnF1-3 (assay: nsRBNS (natural sequence RNA bind-n-seq); RBNS binding buffer (assumed for nsRBNS): 25 mM Tris pH 7.5, 150 mM KCl, 3 mM MgCl2, 0.01% Triton X-100, 500 ug/ml BSA, 20 U/ml SUPERase-In, 4 C; UNK is unkempt and MSI1 is Musashi-1; names of the RNAs are library labels; protein concentration not given here; high values mean tight binding).

Binder	binding signal [enrichment R]
B1	1.42
B2	1.35
B3	0.523
B4	1.17
B5	1.26
B6	0.916
B7	0.9
B8	0.47
B9	0.933
B10	0.995
B11	0.926
B12	0.893
B13	1.09
B14	0.479
B15	0.421
B16	0.384
B17	1.3
B18	1.77
B19	1.76
B20	0.818
B21	0.25
B22	0.697
